Results on 86 compounds are retold here after PubChem BioAssay (NCI).

Molecules are shown by their SMILES. Values joined by “and” are separate entries in the source; they are usually repeats but may differ in a detail not shown here. Identical values can stand only once.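 How tested: cells in 96-well plates exposed to compound for 48 hours at five concentrations. GI50 is the concentration that inhibits growth by half. The concentration for full growth arrest is given as TGI.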 Numbered stars: 1 amine (or outer) side, 2 acyl side, 3 side chain; on linkers, the order of the positions; unused ones are H or OH. Square brackets hold non-standard residues; d marks the D form. Peptide text beside a SMILES is read from it. X3 = CC[C@H](C)[C@H](OC(=O)[C@@H](C)[C@@H](CC)N[*:1])C(=O)[*:2]; X4 = C[C@H](N[*:1])C(=O)C(C)(C)C(=O)[*:2]; NMeY = CN[C@@H](Cc1ccc(O)cc1)C(=O)O; NMeL = CN[C@@H](CC(C)C)C(=O)O; NMeV = CN[C@H](C(=O)O)C(C)C

The test system of the test is NCI-H322M lung. As to the kind of experiment: NCI-60 cell line screen, 48 h.

For `OCc1ccc(N(CCN2CCCC2)Cc2ccc(F)cc2)cc1Cl`, the GI50 was 4.15 µM and the TGI stood at 18 µM.
As for `CC[C@H](C)[C@@H]1OC(=O)[C@@H](C)[C@@H](CC)NC(=O)[C@H](C)NC(=O)C(C)(C)C(=O)[C@H](C)NC(=O)[C@H](Cc2ccc(OC)cc2)N(C)C(=O)[C@H](C(C)C)N(C)C(=O)CNC(=O)[C@H](CC(C)C)N(C)C(=O)CNC1=O` (cyclo(A[X3]G[NMeL]G[NMeV][NMeY](Me)[X4])), the GI50 was 0.141 µM; the TGI is 6.88 µM and 21.6 µM.
Turning to `CS(=O)(=O)OCCN(CCOS(C)(=O)=O)c1ccc(C=O)cc1`, the TGI turned out to be 37 µM.
As for `CC1CCc2sc3[nH]c(=S)n(-c4ccccc4)c(=O)c3c2C1` (stereo not given), the TGI is greater than 100 µM.
In the case of `C=C1C(=O)OC2CC(C)C3C=CC(=O)C3CC12` (stereo not given), the TGI is 18.9 µM.
The same measure, in the same setting: the result for `C=CCn1cc(C(=O)NC(=O)NCCCCCOC(=O)CCCCCCCCCCC(=O)OCCCCCNC(=O)NC(=O)c2cn(CC=C)c(=O)n(C)c2=O)c(=O)n(C)c1=O` reads greater than 100 µM.
Compound `NC(=O)c1nnsc1NC=O` had a TGI greater than 100 µM.
`COc1cc2c(c(OC)c1OC)-c1ccc(OC)c(=O)cc1[C@@H](N(C)C=O)CC2` had a TGI of 2.39 µM.
On to `Fc1ccc2[nH]cc(SSc3c[nH]c4ccc(F)cc34)c2c1`, for which the GI50 is 10.7 µM and the TGI is 27.7 µM.
As for `N#CC1CC2(C(=O)C1=O)c1ccccc1-c1ccccc12` (stereo not given), the TGI is greater than 100 µM.
In turn, `CCN(CC)CCCC(C)NC(=O)c1ccc2c(c1)C(=O)c1ccccc1C2=O` (stereo not given) gave a TGI of 56.7 µM.
Regarding `N#C/C(=C\c1ccc(C(O)P(=O)(O)O)cc1)C(N)=O` (stereo not given), the TGI was greater than 100 µM.
For `N#Cc1ccc2c(c1)C(=O)c1c-2n(CCCN)c(=O)c2cc([N+](=O)[O-])ccc12`, the GI50 was 0.999 µM and the TGI was 2.75 µM.
As to `O=C1ON=C2C3CC4CC12CC1(C3)C(=O)ON=C41`, the TGI was greater than 100 µM.
`CC(C)C1CC[C@H](C)C[C@@H]1OC(=O)C(C(=O)O[C@H]1C[C@@H](C)CCC1C(C)C)C(O)[C@@H]1OC(C)(C)O[C@H]1C1COC(C)(C)O1` (stereo not given in full) yielded a TGI of 38 µM.
On the same count and under the same terms, for `COc1ccccc1NC(=O)O/N=C(/Cl)C(C)C` the value was 26.1 µM.
In the case of `Cc1ccc(Oc2ccc([N+](=O)[O-])cc2[N+](=O)[O-])c(C)c1`, the TGI is greater than 100 µM.
For the compound `CC(=O)/C=C(\O)c1[nH]c(C(=O)O)cc1C1CCN(Cc2ccccc2)C1=O` (stereo not given), the TGI is 66.4 µM.
In the case of `Cn1cnc([N+](=O)[O-])c1Sc1nnnn1-c1ccccc1`, the TGI is greater than 100 µM.
As to `CC(=O)OC1Oc2ccccc2-c2oc(=O)c(-c3cc4ccccc4oc3=O)cc21` (stereo not given), the GI50 is 28 µM and the TGI is greater than 100 µM.
`CCN(CC)CCCOc1cc2c(cc1OC)C(=O)N1CCC[C@H]1C=N2`: the TGI is greater than 100 µM.
Take `CC(C)Nc1ncc2cc(Oc3ccc(F)cc3F)c(=O)n(C)c2n1`: the GI50 was greater than 25 µM and the TGI is greater than 25 µM.
The compound `O=[N+]([O-])c1ccc2c(c1)c(S(=O)(=O)O)cc1nonc12` returned a TGI greater than 100 µM.
As to `C1COCCOCCOCCOCCO1.CC(=O)[CH-]C(C)=O.CC(=O)[CH-]C(C)=O.CC(=O)[CH-]C(C)=O.[V]`, the GI50 was 15.9 µM and the TGI was found to be 56.8 µM.
`O=C(OCc1ccccc1)N1CCN(C(=O)OCc2ccccc2)CCN(C(=O)OCc2ccccc2)CCN(C(=O)OCc2ccccc2)CCN(C(=O)OCc2ccccc2)CC1` returned a TGI greater than 100 µM.
Still for that read-out and setting: for `C/C(=N\N=C(N)N)C(CN(C)C)C(c1ccccc1)c1c(O)c2ccccc2oc1=O` (stereo not given) the value was greater than 100 µM; for `CC1(C)CC2(C)CC1CC2NC(=O)CCN1CCOCC1` (stereo not given), greater than 100 µM.
With `OCC(O)C(O)C(O)/C=N/Nc1nc2ccccc2nc1-c1ccccc1` (stereo not given), the GI50 was 69 µM and the TGI is greater than 100 µM.
`CC1(CC2=C(C(=O)NCCO[Si](C)(C)C(C)(C)C)C3(OCCO3)C2=O)OCCO1` showed a TGI greater than 100 µM.
Consider `C=C1C(=O)O[C@H]2[C@H]1CC/C(Cn1cc(-c3cc(C)c(C)cc3C)nn1)=C\CC[C@@]1(C)O[C@@H]21`, for which the GI50 was 11.1 µM and the TGI turned out to be 23.6 µM.
`NC(=O)CC(N=C1C(=O)OC(C(O)CO)C1=NC(CC(N)=O)C(=O)O)C(=O)O` (stereo not given) registered a TGI greater than 100 µM.
On the same count and under the same terms, for `Cn1c(=O)c2c(nc(Nc3ccc(Cl)cc3)n3c(=O)n(-c4ccccc4)c(=O)n23)n(C)c1=O` the value was greater than 100 µM; for `CC(C)OC(=O)[C@@H](O)[C@H](CO)C1=CC([Si](C)(C)c2ccccc2)=CON1`, greater than 100 µM.
Same read-out and setting: for `CC1(C)CC(Nc2ccc(Nc3ccccc3)cc2)CC(C)(C)N1` the value was greater than 100 µM.
In turn, `O=C1C(NCCN2CCOCC2)=C(Cl)C(=O)c2ncccc21` came in with a TGI of 2.41 µM.
The same measure, in the same setting: for `NNC(=O)/C(NC(=O)c1ccccc1)=C(\N)c1ccc(Cl)cc1` the value was greater than 100 µM; for `COc1ccccc1-c1cc(=O)c2ccc(OC)c(OC)c2o1`, greater than 100 µM.
Turning to `O=C(Nc1ccccc1)Nc1cccc(Oc2nnc(Cl)c3ccccc23)c1`, the GI50 was 2.19 µM and the TGI was greater than 25 µM.
Compound `CC(Cc1ccccc1)NC1=NCCO1` (stereo not given) showed a TGI greater than 100 µM.
In the case of `NC1(C(=O)O)CCCC1`, the TGI is greater than 465 µM.
`Oc1ccc(O)c(CNc2ccccc2)c1` came in with a TGI greater than 100 µM.
In turn, `O=c1c2ccccc2[nH]c2cc(O)cc(O)c12` had a TGI greater than 100 µM.
`Nc1ncnc2c1cnn2Cc1ccc(Cl)cc1` gave a TGI greater than 100 µM.
Still for that read-out and setting: the result for `C[C@]1(O)O[C@@H]2OCC[C@@H]2C2=C1C(=O)c1ccccc1C2=O` reads 33 µM.
For `C=C1C(=O)O[C@H]2[C@H]1CC/C(COC(=O)c1ccccc1)=C\CC[C@@]1(C)O[C@@H]21`, the GI50 was 3.31 µM and the TGI was 12.5 µM.
For `N#Cc1ccc(Oc2nc3ccc(C(F)(F)F)cc3nc2-c2ccccc2)cc1`, the TGI was 34.9 µM.
With `CCCCCCC(C)OC(=O)/C=C(\CC(=O)OC(C)CCCCCC)C(=O)OC(C)CCCCCC` (stereo not given), the TGI is greater than 100 µM.
As for `c1ccc(C(CCN2CC3CCC(CC3)C2)c2ccccc2)cc1`, the TGI was greater than 100 µM.
Same read-out and setting: the result for `NC1CC(=O)c2sccc21` (stereo not given) reads greater than 100 µM; that for `O=C(O)C1CCCCC1c1c2ccc(=O)cc-2oc2cc(O)ccc12` (stereo not given), greater than 100 µM; that for `O=C1c2ccccc2C(=O)c2c(O)ccc(O)c21`, greater than 100 µM.
`CCOC(=O)C(O)(NC(=O)NC(O)(C(=O)OCC)C(F)(F)F)C(F)(F)F` (stereo not given) yielded a TGI greater than 100 µM.
For the compound `Cc1[nH]nc2c1N=C(c1ccccc1Cl)c1cc([N+](=O)[O-])ccc1N2`, the GI50 is greater than 25 µM and the TGI is greater than 25 µM.
Regarding `CN1CCN(c2ccc(C(=O)Nc3cc(-c4cccc(NS(=O)(=O)c5ccccc5)c4)[nH]n3)cc2)CC1`, the GI50 was 9.4 µM and the TGI is 22.1 µM.
`COc1cc(Nc2nc3ccc(C(F)(F)F)cc3nc2-c2ccccc2)cc(OC)c1OC` registered a TGI greater than 100 µM.
On the same count and under the same terms, for `c1ccc2c(c1)CC1COc3ccccc3C1O2` (stereo not given) the value was greater than 100 µM; for `Cc1cccc(C)c1NC(=O)CCc1n[nH]c(=S)o1`, greater than 100 µM.
Take `COc1cc(/C=C2\C(=O)Nc3cccc(Cl)c32)cc(OC)c1OC`: the GI50 is greater than 100 µM and the TGI is greater than 100 µM.
In turn, `CC/C=C/c1cc2cc[nH]c2c2c1C(C)C[C@@H]2C` (stereo not given in full) gave a TGI greater than 100 µM.
On to `COc1ccc(-c2csc(NC(=O)c3cc(O)c(O)c(O)c3)n2)cc1`, for which the GI50 is 12 µM and the TGI is greater than 33.3 µM.
As to `COc1ccc2cc(C(=O)NCCCNC(=O)c3ccc4cc(OC)ccc4c3)ccc2c1`, the TGI is greater than 100 µM.
The same measure, in the same setting: the result for `CCOC(=O)Cn1c(=O)c2cc(-c3ccccc3)cc3c(Cl)nc4c(OC)c(OC)cc1c4c32` reads greater than 42.9 µM.
For `NC(=O)c1ccc2nc3c(n2c1)C(=O)C(=O)c1ccccc1-3`, the GI50 is 1.74 µM and the TGI was 3.13 µM.
On to `COc1ccc2c(c1)C1(C(=O)N2)C(C#N)=C(c2ccccc2)Nc2c1c(-c1ccccc1)nn2-c1ccccc1` (stereo not given), for which the GI50 was 5.58 µM and the TGI was 18.8 µM.
In turn, `O=c1c2ccccc2nc(-c2cccc(Cl)c2)n1NCC1(O)OCC(O)C(O)C1O` (stereo not given) returned a TGI greater than 100 µM.
As to `C#CCn1c(=O)c(Cl)cn(/C(=C/C(=O)OCC)C(=O)OCC)c1=O`, the TGI is greater than 56.4 µM.
Still for that read-out and setting: the result for `c1ccc(-c2cc(-c3cccs3)c(-c3cccs3)o2)cc1` reads greater than 100 µM; that for `c1ccc(COC2(OCc3ccccc3)CC3OC2C2NN=NC32)cc1` (stereo not given), greater than 100 µM.
The compound `O=C(CC1C=CCS1(=O)=O)NCc1ccccc1` (stereo not given) came in with a TGI greater than 100 µM.
The same measure, in the same setting: for `COc1ccc(-c2cc(=O)c3c(OC)c(OC)c(OC)c(OC)c3o2)c(OC)c1` the value was greater than 100 µM.
On the same count and under the same terms, for `CCOC(=O)/C(=C\c1ccc[nH]1)C(=O)c1ccccc1` the value was greater than 100 µM; for `O=c1c2cccnc2ncn1CCN1CCCC1`, greater than 100 µM.
Compound `NC(CC1=CCC=CC1)C(=O)O` (stereo not given) showed a TGI greater than 100 µM.
The compound `CCc1nc2ccc(C(F)(F)F)cc2[nH]c1=O` had a TGI greater than 100 µM.
For `CC(NC(C#N)CC12CC3CC(CC(C3)C1)C2)c1ccccc1` (stereo not given), the TGI was greater than 100 µM.
Turning to `Oc1ccc(C#CCOc2ccccc2)cc1CNCCN(Cc1ccccn1)Cc1ccccn1`, the GI50 is 0.603 µM and the TGI was 2.37 µM.
The compound `Cc1c2c(cc3c(=O)ccn(CCN(C)C)c13)c(=O)ccn2CCN(C)C` yielded a TGI of 34.2 µM.
Compound `COc1cc2c(cc1OC)-c1cc3cc(OC)c(OC)cc3c(=O)n1CC2` came in with a TGI greater than 84.4 µM.
On the same count and under the same terms, the result for `NS(=O)(=O)c1nnc(NS(=O)(=O)c2ccccc2C(=O)O)s1` reads greater than 100 µM; that for `COC(=O)c1ccccc1C1CN=NC12Cc1cccc(C)c1C2=O` (stereo not given), greater than 100 µM.
The same measure, in the same setting: the result for `CC(=O)/C=C/c1ccc(C)cc1` reads greater than 100 µM; that for `C=C1C(=O)O[C@@H]2[C@H](O)[C@@H](C)[C@@H]3C=CC(=O)[C@@]3(C)[C@H](OC(=O)C=C(C)C)[C@H]12`, 8.41 µM; that for `COC(=O)c1cc(C(=CCC[C@H]2CC[C@@]3(C)C(CCC4C3CC[C@@]3(C)C4CC[C@@H]3C(C)CCCC(C)C)C2)c2cc(Cl)c(OC(=O)c3ccccc3)c(C(=O)OC)c2)cc(Cl)c1OC(=O)c1ccccc1` (stereo not given in full), greater than 10 µM.
As to `COc1ccccc1/C=C/C(=O)/C=C/c1ccccc1OC`, the GI50 is 3.54 µM and the TGI is 11.7 µM.
Consider `CC1C(=O)O[C@H]2C1CC[C@@]1(C)[C@H](O)CC[C@@]13C[C@]2(O)OO3` (stereo not given in full), for which the TGI was greater than 100 µM.
In turn, `CCSc1nc(N)c2c(-c3ccccc3)c3c(nc2n1)CCC3` yielded a TGI greater than 100 µM.
